Laboratory results published in PubChem BioAssay AID1508624 (National Center for Advancing Translational Sciences (NCATS), 2021).
Out of some 48,000 compounds screened, about 120 (0.25%) were called active. Another 4% or so got no clear call; they are omitted. The call rests on the fitted dose curve; in most records, active means well fitted activation curve with a large enough effect; inconclusive means small, poorly fitted or top-dose-only effect, or another doubt; inactive means no such curve, though single readings can be large or run the other way. Some of the results follow.

Assay: Primary qHTS for Identification of Small Molecule Activators of Huntingtin-Antisense Promoter Activity; further: nearly all actives have a fitted effect of over 55% in size
Details: HEK293 HTT-AS promoter firefly luciferase reporter, 24 h; series mostly up to 57.5 µM; activity change, positive = activation: at the top concentration
Outline: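 HEK293 Fluc reporter, 2,500 cells/well, 24 h pre-culture; cpds up to 57.5 uM final, 24 h 37 degrees C; Dual-Glo, 10 min RT; normalized vehicle = 0%, zero RLU = -100%.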
Potency means the concentration at half of the fitted maximal effect.

Row | SMILES | activity change, positive = activation | Potency
1 | CC[N+](C)(CC)CCOC(=O)C1c2ccccc2Oc2ccccc21 | inactive: -12.3% | 
2 | CCOc1ccc(-n2nc(CO)c(C(=O)NCc3cccnc3)n2)cc1 | inactive: -7.72% | 
3 | COc1ccc(-c2noc(-c3ccc(N4CCN(c5ccc(OC)cc5)CC4)c([N+](=O)[O-])c3)n2)cc1 | inactive: -0.585% | 
4 | COc1cccc(N2CCN(C(=O)c3cc4c(=O)n(Cc5ccccc5)ccc4nc3C)CC2)c1 | inactive: -19.6% | 
5 | Cc1cccn2c(=O)c(C(=O)NCc3ccccc3Cl)c(O)nc12 | inactive: 9.5% | 
6 | Cc1ccc(C(=O)c2ccc(CC(=O)O)n2C)cc1 | inactive: -9.09% | 
7 | COC(=O)c1c(NC(=O)Cc2coc3ccc(C)cc23)sc2c1CCC2 | inactive: -8.84% | 
8 | Cc1cccc(NC(=O)c2sc3nc4c(cc3c2N)CCCCCC4)c1C | inactive: -27.6% | 
9 | COc1ccc(-n2nc(C(=O)Nc3ccc(Cl)cn3)c3c4ccccc4n(C)c3c2=O)cc1Cl | inactive: -15.5% | 
10 | CC(C)C1C(=O)Nc2ccc(S(=O)(=O)NCc3ccc(Cl)cc3)cc21 (stereo unspecified) | inactive: -43.3% | 
11 | COc1ccc(C2C(C(N)=O)=C(C)Nc3nc(CCCO)nn32)cc1 (stereo unspecified) | inactive: 23.1% | 
12 | Cc1ccc(CCNC(=O)c2cc(Nc3ccc(C)c(C)c3)nc3ccccc23)cc1 | inactive: -8.53% | 
13 | Cc1ccc(NC(=O)CSc2c3c(nc4ccccc24)CCCC3)cc1F | inactive: -30.8% | 
14 | O=C(c1ccccc1Cl)N(Cc1ccco1)Cc1ccco1 | inactive: 0.0891% | 
15 | Cc1ccccc1Nc1c(-c2cccc(N(C)C)c2)nc2ccc(Br)cn12 |  | active: 11.2 µM
16 | Cc1cc(F)ccc1-n1nnc(C(N)=O)c1C | inactive: -21.8% | 
17 | CC(=O)c1cccc(NC(=O)c2c(-c3ccccc3)c(-c3ccccc3)nn(C)c2=O)c1 | inactive: -25.6% | 
18 | CCCCN(CCCC)CCCOC(=O)c1ccc(N)cc1 | inactive: -7.83% | 
19 | Cc1cc(C(F)(F)F)nn1-c1nc(-c2ccccc2)cc(C(F)(F)F)n1 | inactive: 2.95% | 
20 | CCOC(=O)c1ccc(NC(=O)CC2C(=O)N(c3ccc(C)cc3)C(=O)N2C2CCCCC2)cc1 (stereo unspecified) | inactive: -8.4% | 
21 | Cc1cc(=O)n(CC(=O)Nc2ccc([N+](=O)[O-])cc2)c(-n2nc(C)cc2C)n1 | inactive: -17.8% | 

Row | SMILES | activity change, positive = activation | Potency
22 | Cc1[nH]c2ccccc2c1C(c1ccccc1)c1cccs1 (stereo unspecified) | inactive: -31.2% | 
23 | Cc1ccccc1NC(=O)Cn1c(=O)n(CCc2ccccc2)c(=O)c2sc3ccccc3c21 | inactive: -4.79% | 
24 | COc1ccc(CCN2C(=O)c3[nH]nc(-c4ccccc4O)c3C2c2cccc(OC)c2)cc1 (stereo unspecified) | inactive: -32.9% | 
25 | CCOC(=O)C1(C)C=C(Nc2ccc(Br)cc2)C(=O)N1c1ccccc1 (stereo unspecified) | inactive: 1.79% | 
26 | CCn1c(=NC(=O)c2ccc3c(c2)OCCO3)sc2c(C)ccc(OC)c21 | inactive: -45.2% | 
27 | CCCCCCCCCCCCCCCCCCNC(=O)OC1CCN(C(=O)OC[C@H](COC(=O)N(Cc2cccc[n+]2CC)C(=O)c2ccccc2OC)OC)CC1 | inactive: -38.8% | 
28 | Cc1ccc(NC(=O)CSc2nc(C)c(Cc3ccccc3)c(=O)[nH]2)cc1C | inactive: -17.1% | 
29 | Cc1nn(C(C)C(=O)NC2CCCCC2)c(=O)c2c1sc1ccccc12 (stereo unspecified) | inactive: -5.43% | 
30 | Cc1ccc(-c2nnc(Nc3ccc(Br)cc3)c3ccccc23)cc1S(=O)(=O)N1CCN(C)CC1 | inactive: -40.7% | 
31 | COc1ccc(CC(=O)NC2CC(=O)N(c3cccc(F)c3)C2)cc1 (stereo unspecified) | inactive: 19% | 
32 | Cc1ccc(OCC(=O)Nc2ccc(OCc3cc(=O)n4cccc(C)c4n3)cc2)cc1C | inactive: -8.78% | 
33 | COc1ccc(CCNC(=O)Cc2c(C)c3c(cc(C)c4c(C)coc43)oc2=O)cc1OC | inactive: -12.2% | 
34 | CCN(C(=O)C(=O)Nc1ccc2nc3n(c(=O)c2c1)CCCCC3)c1ccc(F)cc1 | inactive: -1.5% | 
35 | COc1ccc2c(CNCc3ccc(C)o3)c(C(=O)O)n(Cc3ccccc3C)c2c1 | inactive: -3.87% | 
36 | CCN(c1ccccc1)C(CNS(=O)(=O)c1ccccc1)c1ccccc1 (stereo unspecified) | inactive: -36.2% | 
37 | COc1ccc(CCNC(=O)c2ccc3c(c2)CCN3S(C)(=O)=O)cc1 | inactive: -8.51% | 
38 | Cc1c(C(=O)N(Cc2ccc(N(C)C)cc2)C2CCS(=O)(=O)C2)oc2ccccc12 (stereo unspecified) | inactive: -1.12% | 
39 | Cc1ccc2sc(N(Cc3cccnc3)C(=O)CCOc3ccccc3)nc2c1C | inactive: -18.7% | 
40 | O=C(O)CCCCCCCC(=O)O | inactive: -1.19% | 
41 | COc1cc(C(=O)CC2(O)C(=O)N(Cc3ccccc3Cl)c3ccccc32)cc(OC)c1OC (stereo unspecified) | inactive: -33.5% | 
42 | COc1ccc(OC)c(C2NC(=O)NC(C)=C2C(=O)Nc2cc(C)cc(C)c2)c1 (stereo unspecified) | inactive: -14.1% | 

Row | SMILES | activity change, positive = activation | Potency
43 | O=C(c1ccc2c(c1)N(Cc1ccccc1)C(=O)c1ccccc1S2(=O)=O)N1CCN(c2ccccc2)CC1 | inactive: -19% | 
44 | Cc1ccccc1-c1nc(CS(=O)CC(=O)N2CCN(c3cc(Cl)ccc3C)CC2)c(C)o1 (stereo unspecified) | inactive: -44.9% | 
45 | CCC(=O)N1c2ccccc2CC1C(=O)NCc1cccc(C)c1 (stereo unspecified) | inactive: -10.6% | 
46 | CCN(CC)CCCNC(=O)Cn1nc(C)n2c(cc3sccc32)c1=O | inactive: -13.3% | 
47 | Cc1ccc(C(=O)c2oc3ccccc3c2NC(=O)Cc2coc3cc(C)ccc23)cc1 | inactive: -0.689% | 
48 | COc1ccc(CCNC(=O)Cn2c(=O)n(-c3ccc(C)c(C)c3)c(=O)c3c(C)c(C)sc32)cc1OC | inactive: 10.3% | 
49 | COc1ccc(Cn2nnc3c(=O)[nH]c(C4CCCN(C(=O)c5ccc(C)cc5)C4)nc32)cc1 (stereo unspecified) | inactive: -18.4% | 
50 | CCCCc1ccc(NC(=O)Cn2nnc3sc4c(c3c2=O)CCC(C)C4)cc1 (stereo unspecified) | inactive: -17.5% | 
51 | CCOc1cccc(C2Nc3ccccc3-c3cc(C)nn32)c1O (stereo unspecified) | inactive: 12.9% | 
52 | CCc1ccccc1NC(=O)Cn1ccn(-c2cc(C)cc(C)c2)c(=O)c1=O | inactive: -74.8% | 
53 | COc1ccc(NC(=O)c2ccc3oc(=O)c(S(=O)(=O)c4ccc(C)cc4)cc3c2)cc1OC | inactive: 0% | 
54 | Cc1nn(S(=O)(=O)c2ccccc2)c(C)c1S(=O)(=O)N1CCC(C)CC1 | inactive: -9.71% | 
55 | COc1ccc(OC)c(C(=O)c2c(N)c(-c3nc(-c4ccc(C)c(C)c4)cs3)c3ccccn23)c1 | inactive: -2.1% | 
56 | Clc1cccc(CSc2nncn3c2cc2sccc23)c1 | inactive: -7.07% | 
57 | Cc1ccc2oc(=O)c3cc(C(=O)Nc4ccc(F)cc4F)sc3c2c1 | inactive: 5.03% | 
58 | COc1ccc(CCNC(=O)c2ccc(Cn3c(=O)c4ccccc4n(Cc4cc(C)ccc4C)c3=O)cc2)cc1OC | inactive: -1.26% | 
59 | Fc1ccc(Nc2nc3ccccc3c3nncn23)c(Cl)c1 | inactive: -1.15% | 
60 | Cc1ccc(NC(=O)c2oc3ccc(S(=O)(=O)N4CCCCCC4)cc3c2C)cc1Cl | inactive: 4.46% | 
61 | CC(C)CSc1nnc(-c2ccccc2)c(-c2ccccc2)n1 | inactive: -0.66% [at 11.5 µM, percent change from vehicle, -100% = no light] | 
